# Experimental data: the supplement of paper PMC3334620
# Over roughly 33,000 sequences, “E-score (-0.5 to 0.5)” has its median near -0.011; the highest 2% begin near 0.28. The list shows a part of the results.
# Target: T1, Gcr1 (UniProt P07261)
# T1 sequence: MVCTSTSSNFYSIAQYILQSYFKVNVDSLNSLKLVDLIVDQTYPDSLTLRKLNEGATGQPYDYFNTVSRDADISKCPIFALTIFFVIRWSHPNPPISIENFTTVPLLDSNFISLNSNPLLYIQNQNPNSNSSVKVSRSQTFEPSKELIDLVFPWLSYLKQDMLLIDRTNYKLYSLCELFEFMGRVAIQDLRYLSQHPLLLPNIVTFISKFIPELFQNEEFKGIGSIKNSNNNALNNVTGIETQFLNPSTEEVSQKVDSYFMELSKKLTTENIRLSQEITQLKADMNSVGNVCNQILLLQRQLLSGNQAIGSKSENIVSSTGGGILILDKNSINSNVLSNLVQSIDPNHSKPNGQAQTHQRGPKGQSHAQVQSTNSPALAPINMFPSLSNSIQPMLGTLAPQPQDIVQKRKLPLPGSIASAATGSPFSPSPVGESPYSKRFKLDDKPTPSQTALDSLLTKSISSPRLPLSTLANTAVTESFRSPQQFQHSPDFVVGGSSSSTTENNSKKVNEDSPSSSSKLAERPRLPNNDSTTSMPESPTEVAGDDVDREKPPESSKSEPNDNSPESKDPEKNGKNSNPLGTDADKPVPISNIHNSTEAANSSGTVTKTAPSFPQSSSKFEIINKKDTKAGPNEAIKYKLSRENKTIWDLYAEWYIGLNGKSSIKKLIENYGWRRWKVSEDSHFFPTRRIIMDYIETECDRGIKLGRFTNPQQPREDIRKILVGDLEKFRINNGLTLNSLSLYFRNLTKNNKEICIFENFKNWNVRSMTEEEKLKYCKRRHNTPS
# Test: PBM E-score (8-mer binding enrichment) (E-score (-0.5 to 0.5)); higher = stronger / more preferred TF binding; most listed sequences are background and not binding sites
# Conditions: protein concentration: 100 nM; construct: GST-full length
# Method in brief: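 Yeast transcription factors carrying a GST tag, as full-length proteins or DNA-binding domains, were produced by PURExpress in vitro transcription/translation. About 100-200 nM protein was applied to universal all-10-mer Agilent arrays, double-stranded by primer extension on fresh or once-stripped slides. Bound protein was detected with fluorescent anti-GST, and scans were normalised with masliner. The Universal PBM Analysis Suite gave each ungapped eight-base word, pooled with its reverse complement, an E-score, a modified Wilcoxon-Mann-Whitney statistic.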
row,Sequence,PBM E-score
1,ATAGATGC,0.0983
2,CAGTCGGA,-0.199
3,CGAAACGA,-0.0501
4,AAGTTTTG,0.127
5,GCGGGCGA,-0.115
6,ATAAATAC,0.134
7,GTAAAGCA,-0.0825
8,CCGGGCCA,-0.0723
9,ACAGGGAC,0.107
10,CTCCGTGC,-0.158
11,AGCTCCAT,0.0236
12,GGTATATA,-0.00971
13,CATGAGGC,-0.0677
14,GTCTATAA,0.0305
15,ACACTATA,0.0415
16,TAAACCCA,-0.0798
17,CTTATCGA,-0.16
18,AGATAGAA,-0.101
19,ATCAACAG,0.104
20,ACAAATCG,0.0554
21,AAGGCCCG,-0.134
22,ATTGGGGC,0.124
23,AGCATATG,0.1
24,AAGATAGG,-0.0321
25,ATTCACAC,0.0867

row,Sequence,PBM E-score
1,GCTACGCA,0.117
2,AAGAGCGT,0.00774
3,AGACATGA,-0.067
4,GGAACTTA,0.113
5,GCTTCTGA,0.0646
6,CCCCTCAC,-0.0282
7,CCTAGGAC,-0.112
8,GAGTCAGC,-0.0621
9,GTGAGCAA,0.0496
10,GCGATGCC,0.0708
11,ACTGCAGT,-0.121
12,AGGGCCAG,-0.166
13,TGCTTCCA,0.146
14,CTTCTGGA,0.225
15,AGAATTCA,0.139
16,ACTCCCAT,0.169
17,GGCCTCCC,0.0992
18,CATCTCCA,-0.0432
19,CCGGGACG,-0.118
20,ATTTTCGG,0.0984
21,ATTGACTG,-0.078
22,TTATACAA,-0.00177
23,ACACATTG,0.0249
24,ACGAACAT,-0.0127
25,CGCTGTAA,-0.042

row,Sequence,PBM E-score
1,CTATTAAC,0.165
2,CAATAGCG,0.025
3,GTGTTGCA,0.0192
4,AGCCCTAC,0.0978
5,GTCATCTA,0.107
6,AGAAATCT,0.0341
7,GACATGCC,-0.335
8,GGGATTAA,-0.101
9,ATAAGGAA,-0.101
10,ACTCCCAG,-0.0477
11,CATCCGAC,-0.00825
12,ACAGGATG,0.372
13,ACAGGAGA,0.0441
14,ACATCCGC,0.0717
15,ATCAGCCG,-0.264
16,TGGGAGAA,-0.095
17,CTTTGGAA,0.282
18,CGGATATA,0.134
19,CCGACAGG,-0.0659
20,CAATACAG,-0.0441
21,ATCGCGTG,0.0392
22,CTACAATC,0.0998
23,AAATTCGC,-0.00863
24,CCTTAATC,0.00958
25,CGCTGCTC,0.0496

row,Sequence,PBM E-score
1,CGGCTTGA,-0.105
2,TAAACAAA,0.0404
3,CAACGCCC,0.0625
4,CTGTTAAC,-0.0199
5,CACCTCTA,0.0633
6,AATGTTAT,0.159
7,ACCACCCC,0.0593
8,ACTTAAAG,0.0453
9,CCAGCACC,0.235
10,CCTTACCA,0.0258
11,ACTCTCAA,0.00305
12,AGGCTACA,0.0361
13,CGTATTTA,0.202
14,CAGGGCCC,0.158
15,AGATCCCG,0.125
16,GGCCAGTA,0.148
17,CGATCAGC,-0.189
18,AAGGTTAG,-0.00114
19,ATGAGGGC,-0.119
20,GCTTCAAA,0.192
21,GGACCTCA,-0.149
22,CTAACTTC,0.239
23,AGCTTCTG,0.245
24,GGCACTGA,0.0877
25,AACGTGCC,0.0609

row,Sequence,PBM E-score
1,ACAAAGGC,-0.078
2,AATGTGCG,0.17
3,AGAACATC,-0.0115
4,ACTGATTC,-0.0425
5,GAAATTCA,0.0164
6,CACGTGCA,-0.127
7,CTTAGCAA,-0.2
8,GTCGCGAC,-0.0332
9,CCGCAAGC,-0.254
10,AGCTTAAA,-0.0201
11,CGGTAAGC,-0.151
12,AACCTATG,-0.059
13,ACTCAAGT,0.152
14,TGCGGACA,-0.11
15,GGGCTACA,-0.0418
16,AGTGTAGG,0.0919
17,GACATAAC,0.0114
18,CACAGAGC,-0.121
19,AGATTTTG,0.135
20,CACCCGCA,0.0465
21,GCGCTTAC,-0.17
22,AACAACAT,0.0437
23,CAGGTCTC,0.0571
24,TATCCCGA,-0.18
25,AACAATTC,-0.0888

row,Sequence,PBM E-score
1,AGGTTTAG,0.00287
2,ATTGTCCA,0.0701
3,ATCTTAAC,-0.14
4,CAAAAAGC,0.0645
5,CGCGCGGC,0.0619
6,GGTTAACA,0.096
7,CCCGGCTA,-0.122
8,CAACCCTC,-0.126
9,ATTGCTGC,0.0296
10,CAGGGCCG,-0.0747
11,CGGAGTCA,-0.00995
12,AGTATAAC,-0.184
13,TCGTTCAA,0.046
14,GAATCCCA,0.367
15,CCTGGCAC,0.0553
16,AATTAGTG,0.199
17,CTATTAAA,0.147
18,AGTAGAAC,0.0351
19,ACAGATTA,-0.034
20,AGAAGCTG,0.348
21,ACCTTAGA,0.0306
22,AGCATTCG,-0.235
23,CCAGTAGA,-0.0842
24,CTAGAAGC,0.154
25,ATCATAAC,-0.0233

row,Sequence,PBM E-score
1,GGATCTTA,0.112
2,AGAGTCGC,0.00386
3,AATGGACG,0.143
4,GAGCGTCC,0.384
5,GGGGCTGA,-0.111
6,TCGGAACA,-0.154
7,ATGACACC,-0.0655
8,ACTCCTAG,-0.0566
9,ACGTATCT,0.0512
10,CCAATGCC,-0.0992
11,ATCGATTA,-0.11
12,GCACTACA,-0.0953
13,CGTAGCCC,0.0578
14,AAGGGCCT,-0.086
15,AATGTTGG,0.0669
16,GAAACCGC,0.0874
17,ATTTAACG,0.0481
18,ATTCTTCA,0.0311
19,AATGGTGC,0.208
20,AGGGGGGA,-0.317
21,AATATCTG,0.0703
22,TAGTTCCA,0.106
23,CACTGGGA,-0.0218
24,GGGCATCA,0.159
25,AACGGCGA,0.00215

row,Sequence,PBM E-score
1,ACTGAACC,-0.154
2,CTGATGTC,-0.161
3,AGCTCCGC,-0.0453
4,AACAAGAC,-0.0162
5,ACTAACGC,-0.0486
6,CGGTACAC,-0.124
7,GACTGATA,0.015
8,GGTGCGCA,0.182
9,AGGTTTGC,-0.144
10,ACTATGGC,-0.13
11,AGTCGACT,0.11
12,ACTTGGAG,0.094
13,GCGCGCGA,0.0214
14,ACAGATGT,0.0175
15,ACATTCCC,0.0896
16,GACGAAAC,-0.102
17,TATTCAAA,0.161
18,ATACCCAC,-0.119
19,ATTCGACG,0.0051
20,AGTGTGGA,0.199
21,AAGATAAA,0.0762
22,AGTGTCAT,-0.0106
23,TCTCCCAA,-0.134
24,ATGTTTAG,0.19
25,AGGATTTA,0.0224

row,Sequence,PBM E-score
1,AGGACCGA,-0.0238
2,CAGCGTGA,-0.0708
3,GCTTCACC,-0.114
4,CTCATCAG,0.0338
5,CCTCTATC,0.221
6,AAGCGGTA,0.0596
7,ACGCGAGG,-0.0221
8,AACAAAGC,0.131
9,CGCCTCGA,0.0744
10,ATCCTCAG,-0.165
11,CCCCGGCC,-0.168
12,CATAACCG,-0.0467
13,AAGGAAGT,0.147
14,ATCTTGTG,0.174
15,GGTTTTAC,-0.0204
16,CCTTCCGA,-0.12
17,CCCGCGCA,-0.127
18,TGACGACA,0.0813
19,TACAGACA,-0.0516
